By IC50 is meant the dose at which the fit gives 50% viability; where the fit passes the top or lowest dose, that dose stands as a limit. AUC, from the same fit, is the share of area under the viability curve across the 256-fold dose range: 1 means no effect, lower means more sensitive. Any top dose called inferred was derived from the fitted curves, not read from the paper. For part of these data: Drugs with an entry number were screened twice under separate entries, and the two screens often disagree.
Columns and labels:
Test in all cases: Viability of human cancer cell lines after 72 h of drug (GDSC screen)
[1] = compound: Cc1cc([C@@H](C)Nc2ccccc2C(=O)O)c2nc(N3CCOCC3)cc(=O)n2c1 [AZD6482]
Method: (§1)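 Human cancer cell lines in 384-well plates, medium with 10% serum, drug for 72 h over a 256-fold dose range (nine 2-fold or five 4-fold steps up to the top dose). Adherent lines were fixed and stained with the nucleic acid dye Syto60, suspension lines read with resazurin; signal relative to control wells, capped at 0 and 100%. One two-parameter sigmoid per drug and line, fitted in a mixed model over all curves with the slope shared within a line.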

[2] = compound: Cn1ncnc1[C@H]1c2n[nH]c(=O)c3cc(F)cc(c23)N[C@@H]1c1ccc(F)cc1 [BMN-673]; details: top dose 10 µM; top dose inferred
Method: as §1

[3] = compound: COc1cc(C(=O)NC2CCN(C)CC2)ccc1Nc1ncc2c(n1)N(C1CCCC1)CCC(=O)N2C(C)C [XMD11-85h]; details: top dose 10 µM; top dose inferred
Method: as §1

[4] = compound: NS(=O)(=O)OC[C@@H]1C[C@@H](n2ccc3c(N[C@H]4CCc5ccccc54)ncnc32)C[C@@H]1O [MLN4924]; details: top dose 1 µM; top dose inferred
Method: as §1

[5] = top dose 5 µM, screen: GDSC drug entry 1066, top dose inferred
[6] = top dose 5.12 µM, screen: GDSC drug entry 156

Cell Line | AUC [1, 5] | IC50 [1, 5] | AUC [1, 6] | IC50 [1, 6] | AUC [2] | IC50 [2] | AUC [3] | IC50 [3] | AUC [4] | IC50 [4]
451Lu (melanoma, adherent) | 0.9 | > 5 µM | 0.94 | > 5.12 µM | 0.878 | 9.36 µM | 0.974 | > 10 µM | – | –
8505C (thyroid, adherent) | 0.938 | > 5 µM | 0.937 | > 5.12 µM | 0.826 | 6.57 µM | 0.959 | > 10 µM | – | –
A101D (melanoma, adherent) | 0.936 | > 5 µM | 0.741 | 1.88 µM | 0.769 | 4.66 µM | 0.871 | > 10 µM | – | –
A388 (skin, adherent) | 0.901 | > 5 µM | 0.936 | > 5.12 µM | 0.902 | > 10 µM | 0.968 | > 10 µM | – | –
AGS (stomach, adherent) | 0.913 | > 5 µM | 0.918 | > 5.12 µM | – | – | 0.908 | > 10 µM | – | –
AU565 (breast, adherent) | 0.909 | > 5 µM | 0.913 | > 5.12 µM | – | – | 0.961 | > 10 µM | – | –
C-4-I (cervix, adherent) | 0.891 | > 5 µM | 0.968 | > 5.12 µM | – | – | 0.926 | > 10 µM | – | –
CAL-62 (thyroid, adherent) | – | – | – | – | 0.341 | 0.232 µM | 0.918 | > 10 µM | – | –
CAL-78 (chondrosarcoma, adherent) | 0.983 | > 5 µM | 0.865 | > 5.12 µM | – | – | 0.935 | > 10 µM | – | –
CAPAN-1 (pancreas, adherent) | 0.984 | > 5 µM | 0.938 | > 5.12 µM | – | – | 0.985 | > 10 µM | – | –
DMS-273 (small cell lung carcinoma, adherent) | 0.714 | 1.31 µM | 0.861 | 4.76 µM | – | – | 0.957 | > 10 µM | – | –
H2810 (mesothelioma, adherent) | – | – | – | – | 0.646 | 1.66 µM | 0.958 | > 10 µM | – | –
HCC1395 (breast, adherent) | 0.929 | > 5 µM | 0.944 | > 5.12 µM | – | – | 0.982 | > 10 µM | – | –
HCC2998 (large intestine, adherent) | 0.968 | > 5 µM | 0.988 | > 5.12 µM | – | – | 0.916 | > 10 µM | – | –
HCT-116 (large intestine, adherent) | 0.941 | > 5 µM | 0.84 | 3.28 µM | – | – | 0.886 | > 10 µM | – | –
HT55 (large intestine, adherent) | 0.99 | > 5 µM | 0.983 | > 5.12 µM | – | – | 0.99 | > 10 µM | – | –
IM-95 (stomach, adherent) | 0.956 | > 5 µM | 0.866 | 5.12 µM | – | – | 0.984 | > 10 µM | – | –
KYSE-140 (oesophagus, adherent) | 0.984 | > 5 µM | 0.982 | > 5.12 µM | – | – | 0.965 | > 10 µM | – | –

Cell Line | AUC [1, 5] | IC50 [1, 5] | AUC [1, 6] | IC50 [1, 6] | AUC [2] | IC50 [2] | AUC [3] | IC50 [3] | AUC [4] | IC50 [4]
LoVo (large intestine, adherent) | – | – | 0.7 | 1.17 µM | – | – | 0.915 | > 10 µM | – | –
MKN28 (stomach, adherent) | 0.964 | > 5 µM | 0.986 | > 5.12 µM | – | – | 0.932 | > 10 µM | – | –
NB6 (neuroblastoma, adherent) | 0.936 | > 5 µM | 0.937 | > 5.12 µM | – | – | 0.93 | > 10 µM | – | –
NB69 (neuroblastoma, adherent) | 0.917 | > 5 µM | 0.883 | 4.42 µM | – | – | 0.893 | 9.52 µM | – | –
NEC8 (testis, adherent) | 0.823 | 2.37 µM | 0.954 | > 5.12 µM | – | – | 0.989 | > 10 µM | – | –
NH-12 (neuroblastoma, adherent) | 0.9 | > 5 µM | 0.826 | 3.61 µM | – | – | 0.951 | > 10 µM | – | –
OCI-LY7 (B-cell lymphoma, suspension) | 0.574 | 0.472 µM | – | – | – | – | 0.988 | > 10 µM | – | –
SUIT-2 (pancreas, adherent) | 0.974 | > 5 µM | 0.979 | > 5.12 µM | 0.718 | 2.69 µM | – | – | 0.921 | > 1 µM
SUP-B8 (B-cell leukaemia, suspension) | 0.877 | 4.93 µM | – | – | 0.977 | > 10 µM | – | – | 0.974 | > 1 µM
SUP-HD1 (Hodgkin lymphoma, suspension) | 0.947 | > 5 µM | 0.96 | > 5.12 µM | 0.613 | 1.25 µM | – | – | 0.805 | 0.477 µM
SUP-M2 (anaplastic large cell lymphoma, suspension) | 0.993 | > 5 µM | 0.994 | > 5.12 µM | 0.043 | < 0.0391 µM | – | – | 0.772 | 0.299 µM
SUP-T1 (T-cell lymphoblastic leukaemia, suspension) | 0.975 | > 5 µM | 0.923 | > 5.12 µM | 0.908 | > 10 µM | – | – | 0.901 | > 1 µM
SW13 (adrenal gland, adherent) | 0.904 | > 5 µM | 0.937 | > 5.12 µM | 0.895 | > 10 µM | – | – | 0.837 | 0.681 µM
SW156 (kidney, adherent) | 0.779 | 2.29 µM | 0.841 | 4.17 µM | 0.955 | > 10 µM | – | – | 0.945 | > 1 µM
SW756 (cervix, adherent) | – | – | 0.975 | > 5.12 µM | 0.78 | 4.94 µM | – | – | 0.831 | 0.809 µM
SW780 (bladder, adherent) | 0.871 | > 5 µM | 0.909 | > 5.12 µM | 0.885 | > 10 µM | – | – | 0.77 | 0.414 µM
SW837 (large intestine, adherent) | 0.931 | > 5 µM | 0.965 | > 5.12 µM | 0.975 | > 10 µM | – | – | 0.98 | > 1 µM
SW900 (lung squamous cell carcinoma, adherent) | 0.922 | > 5 µM | 0.912 | > 5.12 µM | 0.913 | > 10 µM | – | – | 0.878 | > 1 µM

Reference: the supplement of paper PMC4967469
